Experimental data from the domain aggregation screens of Martell et al. (2025).

Assay: soluble fraction after stress (log2 fold change); higher = more stays soluble; pooled small domains, quantitative proteomics
Details: stress: 50 degC
Procedure, shortened: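 The stress applied to every library was 50°C. These custom libraries of small protein domains were pooled and measured at high throughput with quantitative proteomics as the read-out. Aggregation propensity is expressed as the base-two logarithm of the fold change in how much of each protein remains soluble. The higher the value, the more of that protein stays in solution.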

| Sequence | soluble fraction (log2) |
| --- | --- |
| HMQVDDAELIDLVEMEIRELLTSYEFPGDTIPIVKGSALAALEGRDDEIGKNSILELMKAVDESIPQPT | -0.0254 |
| HMADYYSVLGVERDATEEEIKRAYRKMSRKYHPDLAGPQFEEKFKEVNTAYEVLSDPEKRRMFDMGVDPN | 0.13 |
| HMKYKDYYAVLGVPRDADLDQIKKAYRKLARQFHPDVSKEPNAEAQFKEAGEAYATLKDAEKRAAYDQLG | 0.22 |
| HMPREEGIVKWFNRTKGFGFIIRENGDEIFVHHRSVSAHGGQRANLSDGQRVTFTVVERSKGWQAEDVDP | -2.25 |
| HMPLHDIGKVGIPDHILLKPGKLTPAEWEVMKTHARLGAAAIEQAEREATRPVEFLVLAKEIAHHHHER | 0.337 |
| HMNDDYYAILGVSRDADQSEIKKAYRKKARETHPDYGGDEEAFKAVSVAYETLSDPEKRRMYDIGGPDAAR | 0.0172 |
| HMVDYYEVLGVRVDASDSEVKRAYRRLIVENHPDKLIAQGLPQEFIDLANEKMGAINSAYDMIKKERRI | -0.445 |
| HMKAAYITIHDKIKDDIDLGIWKIGQRLPSERDLADEFGVSRMTLRQAITLLVEEGVLTRKVGSGTYVAS | -3.03 |
| HMQSHRFQRLQNDLANRIAQTPPSERLPSEPQLAQELGVSRATLREAMRAFEAQGLIRRKQGAGTFVVG | 0.225 |
| HMSDYYSVLGVSRDATGEEIKRAYRKLARELHPDVNPDPATNEKFKEVTAAYEVLSDPSKRQMYDLGGDPR | 0.0592 |
| HMDQVDDEELLDLVELEVRELLSAYEFPGDDIPIIKGSALAALEGGDEATGKNAILELMKAVDDYVPQPE | -0.138 |
| HMGIYRHFKGGLYEVVGTAKHSETEEELIVYRALYGDYGLWARPAAMFTETVEIDGEPLPRFSLI | -0.495 |
